We go through 43 compounds from ChEMBL document CHEMBL4888484, “Replenishing the malaria drug discovery pipeline: Screening and hit evaluation of the MMV Hit Generation Library 1 (HGL1) against asexual blood stage Plasmodium falciparum ,using a nano luciferase reporter read-out” (2022).

SMILES strings stand for the structures. Among all 150,000 compounds or so, about 540 (0.36%) showed an effect of 50% or more. This is one part of the list.

The test system of the assay is Plasmodium falciparum. Nature of the assay: Primary screen in NF54 nanoGlo assay, in single point, at 2uM, 72h; a lower Z score goes with more inhibition. Type of assay: functional, Erythrocyte. Conditions: timepoint 72 hour.
With `CC[C@H](Oc1ccccc1C)c1nnc(C2(c3ccccc3)CC2)o1`, the “% Inhibition” value is -15% and the Z score was 1.76.

In the case of `c1cc(CN2C[C@@H]3CC[C@H]2CN(C2CCOCC2)C3)c2cccnc2c1`, the “% Inhibition” value is on record as -19% and the Z score turned out to be 1.72.

For the compound `CC(C)(C)c1ccn(C2(C(=O)O)CCN(C(=O)c3ccoc3)CC2)n1`, the “% Inhibition” value was -27% and the Z score is 2.34.

In the case of `O=C(NCCNC(=O)c1ccco1)c1csc(-c2ccco2)n1`, the “% Inhibition” value was 25% and the Z score is -3.43.

As to `CC(C)(C)c1nc(CNc2[nH]ncc2C(N)=O)cs1`, the “% Inhibition” value was determined as 11% and the Z score was -1.42.

Take `CN1CCN([C@H]2CCN(c3ccc(C(F)(F)F)cn3)C[C@H]2CCCO)CC1`: the “% Inhibition” value is recorded as -6% and the Z score came to 0.82.

`Cc1cc2c(cc1C(=O)N1CCO[C@H]3CCCC[C@@H]31)OCCO2`: the “% Inhibition” value stood at 2% and the Z score is listed as -0.23.

For the compound `O=C(NCCc1ccncc1)c1cnc2c(Cl)cccc2c1O`, the “% Inhibition” value was -10% and the Z score came out at 1.85.

Regarding `Cc1sccc1C(=O)NCC(F)F`, the “% Inhibition” value is 5% and the Z score is -0.73.

With `CCOc1ccc(NC(=O)N2CCC(n3cnc4c(Cl)cccc4c3=O)CC2)cc1`, the “% Inhibition” value was -4% and the Z score came to 0.41.

In the case of `Cc1cccc([C@H]2c3cc(OCC(=O)NCc4ccccn4)ccc3CCN2C(=O)c2ccccc2)c1`, the “% Inhibition” value is 5% and the Z score is -0.58.

Consider `Cc1cnc(NC(=O)c2ccccc2-c2ccccc2)s1`, for which the “% Inhibition” value is 4% and the Z score is on record as -0.75.

Turning to `CCCC[C@H](CC)C(=O)Nc1cc(C)ccn1`, the “% Inhibition” value turned out to be 32% and the Z score is listed as -4.18.

In the case of `Oc1ccc(Cl)cc1-c1cc(-c2ccc(Cl)cc2)cc(-c2ccccc2)n1`, the “% Inhibition” value is listed as -18% and the Z score amounted to 1.95.

Turning to `CCc1nnc2ccc(N3CCC4(CCCCC4)C3)nn12`, the “% Inhibition” value was found to be 12% and the Z score is -1.

With `COc1ccc(-n2cc([C@H](C)Nc3nc(C)nc4c3c(C)nn4C)cn2)cc1`, the “% Inhibition” value is -8% and the Z score turned out to be 1.

`Cc1ccc(CNC(=O)[C@H]2CCCN(S(=O)(=O)c3ccccc3)CCc3nnc(-c4cccnc4)n3CC2)o1`: the “% Inhibition” value is -2% and the Z score came to 0.3.

Regarding `CCN(CC)C(=O)CN1CCCN(c2nc(CN3CCC(C)CC3)nc3sc(C)c(C)c23)CC1`, the “% Inhibition” value was found to be 2% and the Z score is recorded as -0.21.

As for `C[C@@H](C(=O)NC1CCCC1)N1CCN(CC2CCC(c3ccccc3)CC2)CC1` (stereo partly specified), the “% Inhibition” value was -10% and the Z score is 1.66.

As to `CCc1nc2c(c(=O)[nH]1)C[C@H]1CC[C@@H](C2)N1C(=O)CCS(=O)(=O)c1ccccc1`, the “% Inhibition” value came out at 8% and the Z score is -1.16.

As for `CCOc1cc(Cl)ccc1C(=O)OCc1nnc(C)n1C`, the “% Inhibition” value is recorded as -9% and the Z score amounted to 1.21.

For `O=C(NC1CC1)[C@@H]1CCCN1c1ccncc1Cl`, the “% Inhibition” value is given as -10% and the Z score was found to be 0.99.

Turning to `CC(=O)N1CCC[C@H](c2[nH]ccc2C(=O)Nc2ccc(OC(F)(F)F)cc2)C1`, the “% Inhibition” value is recorded as -16% and the Z score is 2.04.

With `Cc1ccc(S(=O)(=O)Nc2nc3c(s2)COCC3)cc1C`, the “% Inhibition” value is reported as -7% and the Z score was found to be 0.96.

For the compound `c1ccc2c(c1)CCC(NC[C@@H]1CCCN1)CC2`, the “% Inhibition” value came to 5% and the Z score is recorded as -1.09.

`Cc1ccc(CNC(=O)Cn2cncc(C(=O)NC3CCCC3)c2=O)cc1`: the “% Inhibition” value is 3% and the Z score was -0.53.

As for `Cc1cnc(-c2ccccc2)n1C1CN(C(=O)CC(C)C)C1`, the “% Inhibition” value is 1% and the Z score was -0.11.

As for `O=C(c1nc(-c2csc(S(=O)(=O)N3CCCCC3)c2)no1)N1CCCC1`, the “% Inhibition” value is -4% and the Z score is given as 0.51.

As to `Cc1cccc(NC(=O)c2ccc(C)nc2C2CCN(C(=O)COc3ccc(Cl)cc3)CC2)c1`, the “% Inhibition” value is -12% and the Z score is reported as 2.24.

For the compound `Cc1occc1C(=O)Nc1ccc(F)cc1NC1CC1`, the “% Inhibition” value stood at 10% and the Z score is on record as -1.97.

As to `O=C(COc1ccccc1)Nc1ccc(-c2ccccn2)cn1`, the “% Inhibition” value was -9% and the Z score is recorded as 1.22.

Turning to `Cn1cc(C(=O)N2CC[C@H](O)CC23CCC3)c2ccccc21`, the “% Inhibition” value is recorded as -3% and the Z score is recorded as 0.43.

Take `CC(C)(CN1CCCCC1)NC(=O)c1csc(N)n1`: the “% Inhibition” value is listed as -10% and the Z score stood at 1.8.

Consider `CCN(CC)C(=O)[C@@H]1C[C@H](NC(=O)Cc2cccnc2)CN1C1CCCC1`, for which the “% Inhibition” value was -14% and the Z score is listed as 1.32.

For `COc1ccc(Cl)cc1[C@H](C)NCc1ncnn1C`, the “% Inhibition” value was -11% and the Z score is reported as 1.59.

With `O=C(O)Cc1ccccc1CN1CCOCC1CC1CCCO1` (stereo unspecified), the “% Inhibition” value is -16% and the Z score is given as 2.59.

Regarding `Cc1cc2c(cc1S(=O)(=O)N1CCC[C@H](C(=O)NC3CCCC3)C1)OCC(=O)N2`, the “% Inhibition” value was -3% and the Z score worked out at 0.3.

In the case of `O=C(NC[C@H]1CCN(C2CCCCC2)C1)c1cc(O)ccc1F`, the “% Inhibition” value was -19% and the Z score was 2.

Consider `CCNc1ncc(CN2CCC(C(=O)N3CCCC3)CC2)cn1`, for which the “% Inhibition” value is reported as -18% and the Z score was determined as 2.4.

Consider `COCCOc1ccc(-c2cccc3c(N)ccnc23)cc1`, for which the “% Inhibition” value was -11% and the Z score was determined as 1.22.

Regarding `CCc1csc(NC(=O)NC(C)C2CCCO2)n1` (stereo unspecified), the “% Inhibition” value was -3% and the Z score came out at 0.23.

On to `Cc1nc(CNC(=O)N2CCOCC2)cs1`, for which the “% Inhibition” value was -6% and the Z score came out at 0.8.

Turning to `COc1ccccc1C1=NS(=O)(=O)N(C)C(C(=O)N2CCCC2)=C1`, the “% Inhibition” value is listed as -18% and the Z score is recorded as 3.52.

In general, % Inhibition refers to the change of the read-out against control, counted positive when it falls.
